# Laboratory results as given in the supplement of paper PMC8728848.
# The other results are listed elsewhere or left out.
# B1: LSL-150 (Laetiporus sulphureus), Q7Z8V1 (protein)
# chain: MTDIYIPPEGLYFRLLGFASRQVIFARNSPSPDVGLSPVNDQATDQYFSLIYGTGEHAGLYAIKSKATGKVLFSRRPAEPYVGQIDGDGRYPDNWFKIEPGKTYLSKYFRLVQPSTGTALVSRTHLQPYFWNHPQTEVFDDQYFTFLFEDHHHHHH
# Assays:
# Assay in all cases: glycan array binding signal (z-score within array); higher = stronger binding
# Conditions in all cases: glycan notation: IUPAC condensed, linker removed
# [1] = biological target: Fuc(a1-2)Gal6S(b1-3)GlcNAc
# Method in brief: (§1)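 The binding signal is a Z-score computed within each array and averaged over linkers. Arrays of the same protein sequence at different concentrations or buffers were also averaged together. Data originate from 3228 arrays in the Consortium for Functional Glycomics database, kept only where the protein sequence was available.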
# [2] = biological target: Fuc(a1-2)Gal6S(b1-3)GlcNAc6S
# Method in brief: as §1
# Fuc(a1-2)Gal6S(b1-4)Glc = biological target: Fuc(a1-2)Gal6S(b1-4)Glc
# Method in brief: as §1
# [3] = biological target: Fuc(a1-2)Gal6S(b1-4)Glc6S
# Method in brief: as §1
# Fuc(a1-2)[Gal(a1-3)]Gal = biological target: Fuc(a1-2)[Gal(a1-3)]Gal
# Method in brief: as §1
# [4] = biological target: Fuc(a1-2)[Gal(a1-3)]Gal(b1-3)GalNAc
# Method in brief: as §1
# [5] = biological target: Fuc(a1-2)[Gal(a1-3)]Gal(b1-3)GalNAc(b1-3)Gal(a1-4)Gal(b1-4)Glc
# Method in brief: as §1
# [6] = biological target: Fuc(a1-2)[Gal(a1-3)]Gal(b1-3)GlcNAc
# Method in brief: as §1
# [7] = biological target: Fuc(a1-2)[Gal(a1-3)]Gal(b1-3)GlcNAc(b1-2)Man(a1-3)[Fuc(a1-2)[Gal(a1-3)]Gal(b1-3)GlcNAc(b1-2)Man(a1-6)]Man(b1-4)GlcNAc(b1-4)GlcNAc
# Method in brief: as §1
# [8] = biological target: Fuc(a1-2)[Gal(a1-3)]Gal(b1-3)GlcNAc(b1-2)Man(a1-3)[Fuc(a1-2)[Gal(a1-3)]Gal(b1-3)GlcNAc(b1-2)Man(a1-6)]Man(b1-4)GlcNAc(b1-4)[Fuc(a1-6)]GlcNAc
# Method in brief: as §1
# [9] = biological target: Fuc(a1-2)[Gal(a1-3)]Gal(b1-3)GlcNAc(b1-3)GalNAc
# Method in brief: as §1
# [10] = biological target: Fuc(a1-2)[Gal(a1-3)]Gal(b1-3)GlcNAc(b1-6)GalNAc
# Method in brief: as §1
# [11] = biological target: Fuc(a1-2)[Gal(a1-3)]Gal(b1-4)Glc
# Method in brief: as §1
# [12] = biological target: Fuc(a1-2)[Gal(a1-3)]Gal(b1-4)GlcNAc
# Method in brief: as §1
# [13] = biological target: Fuc(a1-2)[Gal(a1-3)]Gal(b1-4)GlcNAc(b1-2)Man
# Method in brief: as §1
# [14] = biological target: Fuc(a1-2)[Gal(a1-3)]Gal(b1-4)GlcNAc(b1-2)Man(a1-3)[Fuc(a1-2)[Gal(a1-3)]Gal(b1-4)GlcNAc(b1-2)Man(a1-6)]Man(b1-4)GlcNAc(b1-4)GlcNAc
# Method in brief: as §1
# [15] = biological target: Fuc(a1-2)[Gal(a1-3)]Gal(b1-4)GlcNAc(b1-2)Man(a1-3)[Fuc(a1-2)[Gal(a1-3)]Gal(b1-4)GlcNAc(b1-2)Man(a1-6)]Man(b1-4)GlcNAc(b1-4)[Fuc(a1-6)]GlcNAc
# Method in brief: as §1
# [16] = biological target: Fuc(a1-2)[Gal(a1-3)]Gal(b1-4)GlcNAc(b1-3)GalNAc
# Method in brief: as §1
# [17] = biological target: Fuc(a1-2)[Gal(a1-3)]Gal(b1-4)GlcNAc(b1-3)[Fuc(a1-2)[Gal(a1-3)]Gal(b1-4)GlcNAc(b1-6)]GalNAc
# Method in brief: as §1
# [18] = biological target: Fuc(a1-2)[Gal(a1-3)]Gal(b1-4)GlcNAc(b1-6)GalNAc
# Method in brief: as §1
# [19] = biological target: Fuc(a1-2)[Gal(a1-3)]Gal(b1-4)[Fuc(a1-3)]Glc
# Method in brief: as §1
# [20] = biological target: Fuc(a1-2)[Gal(a1-3)]Gal(b1-4)[Fuc(a1-3)]GlcNAc
# Method in brief: as §1
# [21] = biological target: Fuc(a1-2)[Gal(a1-3)]Gal(b1-4)[Fuc(a1-3)]GlcNAc(b1-3)GalNAc
# Method in brief: as §1
# [22] = biological target: Fuc(a1-2)[Gal(a1-4)]Gal(b1-4)GlcNAc
# Method in brief: as §1
# [23] = biological target: Fuc(a1-2)[GalNAc(a1-3)]Gal
# Method in brief: as §1
# [24] = biological target: Fuc(a1-2)[GalNAc(a1-3)]Gal(b1-3)GalNAc(a1-3)[Fuc(a1-2)]Gal(b1-4)GlcNAc
# Method in brief: as §1
# [25] = biological target: Fuc(a1-2)[GalNAc(a1-3)]Gal(b1-3)GalNAc(b1-3)Gal(a1-4)Gal(b1-4)Glc
# Method in brief: as §1
# [26] = biological target: Fuc(a1-2)[GalNAc(a1-3)]Gal(b1-3)GlcNAc
# Method in brief: as §1
# [27] = biological target: Fuc(a1-2)[GalNAc(a1-3)]Gal(b1-3)GlcNAc(b1-2)Man(a1-3)[Fuc(a1-2)[GalNAc(a1-3)]Gal(b1-3)GlcNAc(b1-2)Man(a1-6)]Man(b1-4)GlcNAc(b1-4)GlcNAc
# Method in brief: as §1
# [28] = biological target: Fuc(a1-2)[GalNAc(a1-3)]Gal(b1-3)GlcNAc(b1-2)Man(a1-3)[Fuc(a1-2)[GalNAc(a1-3)]Gal(b1-3)GlcNAc(b1-2)Man(a1-6)]Man(b1-4)GlcNAc(b1-4)[Fuc(a1-6)]GlcNAc
# Method in brief: as §1
# [29] = biological target: Fuc(a1-2)[GalNAc(a1-3)]Gal(b1-3)GlcNAc(b1-3)GalNAc
# Method in brief: as §1
# [30] = biological target: Fuc(a1-2)[GalNAc(a1-3)]Gal(b1-3)GlcNAc(b1-6)GalNAc
# Method in brief: as §1
# [31] = biological target: Fuc(a1-2)[GalNAc(a1-3)]Gal(b1-4)Glc
# Method in brief: as §1
# [32] = biological target: Fuc(a1-2)[GalNAc(a1-3)]Gal(b1-4)GlcNAc
# Method in brief: as §1
# [33] = biological target: Fuc(a1-2)[GalNAc(a1-3)]Gal(b1-4)GlcNAc(b1-2)Man
# Method in brief: as §1
# [34] = biological target: Fuc(a1-2)[GalNAc(a1-3)]Gal(b1-4)GlcNAc(b1-2)Man(a1-3)[Fuc(a1-2)[GalNAc(a1-3)]Gal(b1-4)GlcNAc(b1-2)Man(a1-6)]Man(b1-4)GlcNAc(b1-4)GlcNAc
# Method in brief: as §1
# [35] = biological target: Fuc(a1-2)[GalNAc(a1-3)]Gal(b1-4)GlcNAc(b1-2)Man(a1-3)[Fuc(a1-2)[GalNAc(a1-3)]Gal(b1-4)GlcNAc(b1-2)Man(a1-6)]Man(b1-4)GlcNAc(b1-4)[Fuc(a1-6)]GlcNAc
# Method in brief: as §1
# [36] = biological target: Fuc(a1-2)[GalNAc(a1-3)]Gal(b1-4)GlcNAc(b1-3)Gal(b1-4)GlcNAc
# Method in brief: as §1
# [37] = biological target: Fuc(a1-2)[GalNAc(a1-3)]Gal(b1-4)GlcNAc(b1-3)Gal(b1-4)GlcNAc(b1-3)Gal(b1-4)GlcNAc
# Method in brief: as §1
# [38] = biological target: Fuc(a1-2)[GalNAc(a1-3)]Gal(b1-4)GlcNAc(b1-3)GalNAc
# Method in brief: as §1
# [39] = biological target: Fuc(a1-2)[GalNAc(a1-3)]Gal(b1-4)GlcNAc(b1-3)[Fuc(a1-2)[GalNAc(a1-3)]Gal(b1-4)GlcNAc(b1-6)]GalNAc
# Method in brief: as §1
# [40] = biological target: Fuc(a1-2)[GalNAc(a1-3)]Gal(b1-4)GlcNAc(b1-6)GalNAc
# Method in brief: as §1
# [41] = biological target: Fuc(a1-2)[GalNAc(a1-3)]Gal(b1-4)[Fuc(a1-3)]GlcNAc
# Method in brief: as §1
# [42] = biological target: Fuc(a1-2)[GalNAc(a1-3)]Gal(b1-4)[Fuc(a1-3)]GlcNAc(b1-3)GalNAc
# Method in brief: as §1
# [43] = biological target: Fuc(a1-2)[GalNAc(a1-4)]Gal(b1-4)GlcNAc
# Method in brief: as §1
binder,measurement,setting,value
B1,glycan array binding signal (z-score),[1],-0.201
same,glycan array binding signal (z-score),[2],-0.195
same,glycan array binding signal (z-score),Fuc(a1-2)Gal6S(b1-4)Glc,-0.208
same,glycan array binding signal (z-score),[3],-0.204
same,glycan array binding signal (z-score),Fuc(a1-2)[Gal(a1-3)]Gal,-0.199
same,glycan array binding signal (z-score),[4],-0.208
same,glycan array binding signal (z-score),[5],-0.208
same,glycan array binding signal (z-score),[6],-0.206
same,glycan array binding signal (z-score),[7],-0.205
same,glycan array binding signal (z-score),[8],-0.207
same,glycan array binding signal (z-score),[9],-0.203
same,glycan array binding signal (z-score),[10],-0.208
same,glycan array binding signal (z-score),[11],-0.201
same,glycan array binding signal (z-score),[12],-0.209
same,glycan array binding signal (z-score),[13],-0.208
same,glycan array binding signal (z-score),[14],-0.209
same,glycan array binding signal (z-score),[15],-0.202
same,glycan array binding signal (z-score),[16],-0.21
same,glycan array binding signal (z-score),[17],-0.204
same,glycan array binding signal (z-score),[18],-0.207
same,glycan array binding signal (z-score),[19],-0.2
same,glycan array binding signal (z-score),[20],-0.206
same,glycan array binding signal (z-score),[21],-0.199
same,glycan array binding signal (z-score),[22],-0.204
same,glycan array binding signal (z-score),[23],-0.207
same,glycan array binding signal (z-score),[24],-0.21
same,glycan array binding signal (z-score),[25],-0.209
same,glycan array binding signal (z-score),[26],-0.214
same,glycan array binding signal (z-score),[27],-0.208
same,glycan array binding signal (z-score),[28],-0.209
same,glycan array binding signal (z-score),[29],-0.212
same,glycan array binding signal (z-score),[30],-0.208
same,glycan array binding signal (z-score),[31],-0.197
same,glycan array binding signal (z-score),[32],-0.211
same,glycan array binding signal (z-score),[33],-0.208
same,glycan array binding signal (z-score),[34],-0.208
same,glycan array binding signal (z-score),[35],-0.201
same,glycan array binding signal (z-score),[36],0.142
same,glycan array binding signal (z-score),[37],2.99
same,glycan array binding signal (z-score),[38],-0.211
same,glycan array binding signal (z-score),[39],-0.203
same,glycan array binding signal (z-score),[40],-0.21
same,glycan array binding signal (z-score),[41],-0.205
same,glycan array binding signal (z-score),[42],-0.203
same,glycan array binding signal (z-score),[43],-0.196
